# Assay results published in PubChem BioAssay AID1345083 (National Center for Advancing Translational Sciences (NCATS), 2018).
# Values joined by “and” are separate entries in the source; they are usually repeats but may differ in a detail not shown here. Equal values may be shown once. Out of some 94,000 compounds screened, about 6,200 (6.6%) were called active. This list was built around the results that the source calls inconclusive (neither active nor inactive); the mix of calls is not that of the screen. The call rests on the fitted dose curve; in most records, active means well fitted inhibition curve with a large enough effect; inconclusive means small, poorly fitted or top-dose-only effect; inactive means flat fitted curve, though single readings scatter. Potencies of inconclusive entries are doubtful fits and often do not repeat.
# Assay: Cytotoxic Profiling in HEK 293 Cell Line of Diverse Libraries Using Quantitative High-Throughput Screening; further: nearly all actives have a fitted effect of over 60% in size
# Conditions: HEK 293 viability, ATP luminescence (CellTiter-Glo), 48-72 h; series mostly up to 115 µM
# Summary of the method: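 HEK 293 cells at 250 cells/well were exposed to compounds by pintool transfer for 48 or 72 hr at 37 degree Celsius, 5% CO2. Viability was read as ATP-coupled luminescence with CellTiter-Glo after 10 min at room temperature.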
# Potency means the concentration at half of the fitted maximal effect; tags describe the fitted curve by direction and shape.
row,Compound,Potency
1,O=[S+]1([O-])NC2(CCCN(Cc3ccccc3C(F)(F)F)C2)CNc2ccccc21 (centres undefined),active: 44.7 µM
2,CSc1ccc(-c2ccc3c(c2)C(=O)N2CC[C@H](NC(=O)C4CCNCC4)C[C@H]2C(=O)N3)cc1,inactive
3,CCCC(=O)NC1CCN(c2ccnc3ccnn23)C1 (centres undefined),"inconclusive: 70.8 µM [inhibitor, full curve, poor fit]"
4,O=C(CNC(=O)C1CCCN1C(=O)c1cccc(-c2cccnc2)c1)c1ccccc1 (centres undefined),"inconclusive: 89.1 µM [inhibitor, single point]"
5,COc1ccc(-c2ccc3c(c2)C(=O)N2CCN(C(=O)c4ccccc4)C[C@@H]2C(=O)N3)cc1,"inconclusive: 50.1 µM [inhibitor, partial curve, poor fit]"
6,O=C(c1ccc2[nH]ncc2c1)N1CCOCC12CCN(CCCc1ccccc1)CC2,"inconclusive: 56.2 µM [inhibitor, partial curve, poor fit]"
7,Cc1ccc(-c2cc(-c3cccnc3)nc3c(C)noc23)c(C)c1,active: 79.4 µM
8,Cc1cc(C)cc(-c2ccccc2C=O)c1,"inconclusive: 141 µM [inhibitor, partial curve, poor fit]"
9,O=C(C1CC(=O)N(c2n[nH]c3cccc(F)c23)C1)N1CCc2ccccc2C1 (centres undefined),"inconclusive: 70.8 µM [inhibitor, single point]"
10,COCCN1C(=O)c2ccccc2C(C(=O)Nc2ccc(C)cn2)C12CCCCC2 (centres undefined),inactive
11,COc1cccc(C(=O)N2CCC3(CC2)NC(=O)N(Cc2ccccc2)C3=O)c1OC,inactive
12,O=C(c1ccsc1)N1CCC(Oc2ccccc2-c2nc(C3CC3)no2)C1 (centres undefined),"inconclusive: 50.1 µM [inhibitor, partial curve, poor fit]"
13,COc1ccccc1-c1ccc(C(=O)N2CCC(C(=O)NCc3cccc(F)c3)CC2)cc1,"inconclusive: 56.2 µM [inhibitor, partial curve, poor fit]"
14,O=C(NC1CCCC1)N1CCCC(C(=O)N2CCCC2c2nc3ccncc3[nH]2)C1 (centres undefined),inactive
15,CCNC(=O)OC1CN(C(=O)c2cc3ccccc3s2)CCC(=O)N(C)c2ccccc21 (centres undefined),"inconclusive: 22.4 µM [inhibitor, partial curve, poor fit]"
16,CC(=O)Nc1ccc(OCC(=O)N2CCN(c3ccc(Cl)cc3)CC2)nc1,"inconclusive: 20 µM [inhibitor, partial curve, poor fit]"
17,O=C(c1ccccc1Cl)N1CCC2(CC1)CC(=O)N(c1ccccc1)c1ccccc1O2,active: 79.4 µM
18,CCn1ncc(N2CCC(NC(=O)Cc3ccc(F)cc3)CC2)cc1=O,"inconclusive: 89.1 µM [inhibitor, single point]"
19,O=C(c1nc(-c2ccc(F)cc2)c2cnccn12)N1CCOCC1,inactive
20,COCCOC1CCOC2(CCN(C(=O)COc3ccccc3)CC2)C1 (centres undefined),inactive
21,O=C(COc1ccccc1)NC1CCN(c2cc(-c3ccccc3)[nH]n2)CC1,"inconclusive: 44.7 µM [inhibitor, partial curve, poor fit]"
22,CC1=C[C@@H](CNC(C)C)[C@H](C(C)C)C[C@H]1Cc1nnc(-c2ccc([N+](=O)[O-])cc2)o1,active: 79.4 µM

row,Compound,Potency
1,CCn1ncc(NC(=O)Cn2ncc3cc(-c4ccc(N(C)C)cc4)ccc32)n1,"inconclusive: 2.82 µM [inhibitor, full curve, poor fit]"
2,O=C(NCCc1ccc(F)cc1)C1CCCCN1Cc1ccc(-c2ccsc2)cc1 (centres undefined),active: 35.5 µM
3,CN1C[C@@H](NC(=O)c2ccc(C#N)cc2)C[C@H]1c1nc(Cc2ccccc2)no1,"inconclusive: 112 µM [inhibitor, partial curve]"
4,CN1C[C@H](NCc2cnn(C)c2)CCC[C@@H](C(=O)NC2CC2)CC1=O,inactive
5,CN(C1CCc2ccccc2C1)[S+](=O)([O-])c1cccs1 (centres undefined),"inconclusive: 126 µM [inhibitor, partial curve, poor fit]"
6,COCc1ccc2c(c1)c(OC(C)(C)C(=O)N1CCN(C)CC1)nn2Cc1cccnc1,inactive
7,COCCNC(=O)C1CCN(c2nccc(Nc3ccccc3OC)n2)CC1,"inconclusive: 35.5 µM [inhibitor, full curve]"
8,CCn1nc(C)c(CCN(C)C(=O)C2CCN(c3cnn(Cc4ccccc4)c(=O)c3)C2)c1C (centres undefined),"inconclusive: 39.8 µM [inhibitor, partial curve, poor fit]"
9,N#Cc1cccc(CN2CCc3nc(C(=O)NCC4CC4)oc3CC2)c1,"inconclusive: 79.4 µM [inhibitor, partial curve]"
10,c1ccc2c(-c3nc4ccncc4[nH]3)c[nH]c2c1,"inconclusive: 141 µM [inhibitor, single point] and inconclusive: 126 µM [inhibitor, single point]"
11,O=C(NC1CCCCC1)N1CCC(c2noc(C3CC3)n2)C1 (centres undefined),inactive
12,CC(=O)N1CCC(C(=O)N2CCCCCCN(C)C(=O)[C@@H]3CCC[C@@H]32)CC1,inactive
13,O=C(NCc1ccccc1)c1nc2sccn2c1-c1ccc(F)cc1,inactive
14,Cc1ccc(C(=O)N2CCc3onc(-c4cccc5ccccc45)c3C2)cc1,active: 39.8 µM
15,CCc1noc(C)c1C(=O)N1CCCN(Cc2ccc(F)cc2)C(C(C)C)C1 (centres undefined),"inconclusive: 89.1 µM [inhibitor, single point]"
16,O=C(Nc1ccc(Oc2ccccc2)cc1)O[C@@H]1CO[C@H]2[C@@H]1OC[C@@H]2NCC1CCCCC1,"inconclusive: 44.7 µM [inhibitor, partial curve, poor fit]"
17,CSc1cccc(NC(=O)N[C@H]2CCN(C(=O)c3cccn3C)[C@@H]2C(=O)N[C@@H](Cc2cccs2)C(N)=O)c1,inactive
18,O=C(C1CCC1)N1CCCC(n2cc(-c3nc(-c4ccccc4)no3)nn2)C1 (centres undefined),"inconclusive: 25.1 µM [inhibitor, partial curve, poor fit]"
19,CC1(CNc2ccccc2)COc2ccc(C(=O)NC3CCOCC3)cc2N1 (centres undefined),"inconclusive: 25.1 µM [inhibitor, full curve, poor fit]"
20,N#Cc1cccnc1N1CCCC(CO)(Cc2ccc(F)cc2F)C1 (centres undefined),"inconclusive: 56.2 µM [inhibitor, partial curve, poor fit]"
21,COc1cccc(N2C(=O)NC(=NC3CCCCC3)C23CCN(Cc2ccc(F)cc2)CC3)c1,inactive
22,Cn1cccc1CN1CCCC12Cc1ccccc1CNC2=O (centres undefined),"inconclusive: 112 µM [inhibitor, single point]"

row,Compound,Potency
1,O=C(NC1CCCN(c2ccnc3ccnn23)C1)c1ccncc1 (centres undefined),"inconclusive: 126 µM [inhibitor, single point]"
2,Cc1cc(S(=O)(=O)N[C@@H]2CN(C)C[C@H]2CN(C)C)ccc1Cl,"inconclusive: 79.4 µM [inhibitor, partial curve, poor fit]"
3,COc1ccccc1C(=O)N1CCCC2(COc3ccccc3C(=O)N2)C1 (centres undefined),"inconclusive: 8.91 µM [inhibitor, full curve, poor fit]"
4,COc1cccc(CN2CCc3c(cc(C(=O)N4CCN(CC(C)C)CC4)n3C)C2)c1,"inconclusive: 50.1 µM [inhibitor, partial curve, poor fit]"
5,O=C(NC1CCN(c2cc(-c3ccc(Cl)cc3)[nH]n2)C1)c1ccc2c(c1)OCO2 (centres undefined),"inconclusive: 89.1 µM [inhibitor, single point]"
6,CC(NC(=O)C1CCN(C(=O)c2ncn3c2COC(c2ccccc2)C3)CC1)c1ccc(F)cc1 (centres undefined),inactive
7,COc1ccccc1N1CCN(C(=O)C2CC(=O)N(c3n[nH]c4cccc(F)c34)C2)CC1 (centres undefined),"inconclusive: 50.1 µM [inhibitor, partial curve, poor fit]"
8,COc1ccc(C(=O)N2CCc3ccc(C(=O)Nc4ccc(OC)cc4C)cc32)cc1,"inconclusive: 50.1 µM [inhibitor, partial curve, poor fit]"
9,Cc1nn(-c2ccccc2)c2c1C(C1CC1)N(CC1CN(C(=O)c3ccc(Cl)cc3)C1)C2=O (centres undefined),"inconclusive: 14.1 µM [inhibitor, full curve, poor fit]"
10,Cc1noc2c(-c3cccnc3NCc3cccnc3)cc(-c3ccccc3)nc12,"inconclusive: 56.2 µM [inhibitor, full curve]"
11,COCCc1noc(-c2ccccc2OC2CN(C(=O)c3ccc(C)nc3)C2)n1,inactive
12,O=C(NCCc1ccccc1)c1ccc2nnc(-c3ccoc3)n2c1,"inconclusive: 89.1 µM [inhibitor, single point]"
13,Cc1cc(C)c(C(=O)N2CCCC(Nc3ccccc3)C2)cc1C (centres undefined),"inconclusive: 50.1 µM [inhibitor, partial curve, poor fit]"
14,Cc1nc2c(c(N(C)Cc3noc(C4CCCC4)n3)n1)CCNCC2,inactive
15,CC1=NS(=O)(=O)N(Cc2ccccc2)C=C1C(=O)OCc1nc(-c2ccc3c(c2)OCO3)no1,inactive
16,CSc1ccccc1NC(=O)c1cnc(-c2ccc(C)cc2)nc1-c1ccncc1,"inconclusive: 39.8 µM [inhibitor, partial curve, poor fit]"
17,COc1ccc(C(=O)NC2CCN(c3cc(-c4ccccc4)[nH]n3)CC2)cc1OC,"inconclusive: 100 µM [inhibitor, single point]"
18,N[C@@H]1CC[C@H](C(=O)N2CCN(CCCOc3ccc(F)cc3)CC2)C1,"inconclusive: 39.8 µM [inhibitor, full curve]"
19,Cc1cc(OC2CN(C(=O)c3ccccc3F)C2)ccc1F,"inconclusive: 100 µM [inhibitor, partial curve]"
20,Cc1ccc(Nc2ccnc(N3CCCC(C(=O)NCCc4ccccc4)C3)n2)cc1 (centres undefined),"inconclusive: 31.6 µM [inhibitor, full curve, poor fit]"
